Article PMC6919601, “Identification of Plasmodium dipeptidyl aminopeptidase allosteric inhibitors by high throughput screening” (PLoS ONE, 2019)
Screen size: about 110,000 compounds; about 230 (0.21%) showed an effect of 50% or more. The list shows a part of the results.

What follows are compounds tested against DPAP1 (Plasmodium falciparum, UniProt Q8IIJ9) (assay: primary screen, percent inhibition; read by cleavage of a fluorogenic dipeptide substrate; higher = more effect of the substance).
Set-up: species or system P. falciparum D10 trophozoite lysates; single well
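Further: 30 min substrate incubation versus DMSO and 10 µM JCP410 controls.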

DPAP1, sequence (Q8IIJ9 whole entry, looked up): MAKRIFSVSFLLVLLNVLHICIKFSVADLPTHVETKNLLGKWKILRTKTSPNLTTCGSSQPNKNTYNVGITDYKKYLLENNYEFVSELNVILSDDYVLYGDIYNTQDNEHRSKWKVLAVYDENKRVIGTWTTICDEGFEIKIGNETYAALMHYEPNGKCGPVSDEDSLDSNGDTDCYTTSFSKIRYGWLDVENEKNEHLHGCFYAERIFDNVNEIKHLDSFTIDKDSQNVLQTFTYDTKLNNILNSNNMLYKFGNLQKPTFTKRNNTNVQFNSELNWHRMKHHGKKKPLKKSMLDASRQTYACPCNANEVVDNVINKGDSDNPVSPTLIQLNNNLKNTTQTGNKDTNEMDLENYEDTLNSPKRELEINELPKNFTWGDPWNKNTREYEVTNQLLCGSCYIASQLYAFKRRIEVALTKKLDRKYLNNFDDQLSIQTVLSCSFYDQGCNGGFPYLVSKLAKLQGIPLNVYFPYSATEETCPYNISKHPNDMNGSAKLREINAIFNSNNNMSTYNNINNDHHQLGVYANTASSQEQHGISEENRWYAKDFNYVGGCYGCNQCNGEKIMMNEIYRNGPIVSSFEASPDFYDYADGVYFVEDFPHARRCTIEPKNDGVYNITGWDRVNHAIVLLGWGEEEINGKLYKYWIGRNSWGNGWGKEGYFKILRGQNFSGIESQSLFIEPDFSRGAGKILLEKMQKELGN

Row | Compound | % Inhibition @ 10 uM
1 | CCOc1cc(C2NC(=O)NC3=C2CCc2ccccc23)ccc1O (stereo not drawn) | -1.18%
2 | COCCn1c(SCC(=O)Nc2nc(C)cs2)nc2c(c1=O)SCC2 | -1.62%
3 | COc1ccc(C(=O)NC23CC4CC(CC(C4)C2)C3)cc1OC | 3.15%
4 | CCN(CC)c1ccc(NC(=O)Nc2ccccc2)cc1 | -1.37%
5 | Cc1ccc(-c2nc(CS(=O)(=O)CC(=O)NCCN3CCCC3)c(C)o2)cc1 | -1.89%
6 | O=C(C1=C(O)C(=O)N(CCCn2ccnc2)C1c1ccc(O)cc1)c1ccc2c(c1)OCCO2 (stereo not drawn) | -5.06%
7 | CC(=O)Nc1ccc2oc(-c3ccccc3)nc2c1 | 0.986%
8 | COC(=O)c1ccc(Cn2cnc3c2c(=O)n(C)c(=O)n3C)cc1 | -3.28%
9 | Cc1ccc(Cn2nc(C)c(NC(=O)c3onc(C)c3Cl)c2C)cc1 | -5.25%
10 | O=C1/C(=C/c2cc(Br)ccc2O)Sc2ccccc21 | -7.8%
11 | CC1(C)CC(O)=C/C(=N/C2CC(C)(C)NC(C)(C)C2)C1 | -2.8%
12 | Cc1ccccc1-c1nc(CS(=O)(=O)CC(=O)NCCCN2CCCC2)c(C)o1 | 3.19%
13 | CNc1nc(C)c([N+](=O)[O-])c(Nc2ccc(OC)cc2)n1 | -2.42%
14 | Cc1cc(O)n2nc(C(F)(F)F)c(-c3ccc(Cl)cc3)c2n1 | -2.28%
15 | Cc1ncc(CO)c2cc(C(=O)O)c(=O)oc12 | -3.13%
16 | COc1ccc(C2C3=C(O)CC(c4ccco4)CC3=Nc3ccccc3N2C(C)=O)cc1OC (stereo not drawn) | -4.67%
17 | CCN(CC)CCN(CC)Cc1ccc(F)c(Br)c1 | 3.19%
18 | CCN(C(=O)COc1ccccc1Cl)c1ccccc1 | -3.58%
19 | CNC(=O)C1CC(=O)N(CCc2ccc(OC)cc2)/C(=N/c2cccc(C(F)(F)F)c2)S1 (stereo not drawn) | 3.79%
20 | Cc1cccc(NC(=O)CSc2nccn2C)c1 | -2.78%
21 | COCCCNC(=O)CCS(=O)(=O)Cc1ccc(C)cc1 | -2.99%
22 | CCN1CCCC1CNC(=O)C1c2ccccc2C(=O)N(C2CCCC2)C1c1cccs1 (stereo not drawn) | -5.92%
23 | COc1ccc(C2Nc3ccccc3N=C3CC(C)(C)CC(O)=C32)c(OC)c1 (stereo not drawn) | 0.634%
24 | Cc1ccc(CNC(=O)Cn2ccc3ccccc3c2=O)o1 | -0.631%
25 | CC(C)=CCC/C(C)=C/CN1CCN(c2ccccc2F)CC1 | 1.74%
26 | Cn1cccc1CN1CCN(Cc2ccccc2)CC1 | 2.1%

Row | Compound | % Inhibition @ 10 uM
27 | CCN(Cc1ccccc1)C(=O)Cn1c(=O)n(CC(=O)NCc2ccco2)c(=O)c2sccc21 | -4.43%
28 | O=C(O)c1ccc(CNCc2ccc3c(c2)OCO3)s1 | -0.637%
29 | CCOC(=O)C1=C(C)OC(n2cccc2)=C(C#N)C1c1ccc(OC)cc1 (stereo not drawn) | -0.0108%
30 | Cc1ccc(CCNC(=O)C2CCN(c3ncnc4c3nc3n4CCCCC3)CC2)cc1 | 1.19%
31 | CCOc1ccc(-n2nnc(-c3nc(-c4ccccc4F)no3)c2N)cc1 | -0.212%
32 | Cc1nc(C)c(C(=O)NCc2ccco2)s1 | 2.41%
33 | Cc1ccc(-n2ncc3c(N4CCOCC4)ncnc32)c(C)c1 | 2.24%
34 | O=C(NCCc1ccccc1)C1CCCN(S(=O)(=O)c2cccs2)C1 (stereo not drawn) | 1.16%
35 | COc1ccc(C)cc1NC(=O)C1C2C=CC(C2)C1C(=O)O (stereo not drawn) | 3.65%
36 | COc1ccc(-c2cc(C(F)(F)F)c(C#N)c(SCC(=O)NC3CC3)n2)cc1OC | -0.68%
37 | c1cc(-c2nc3cc(Oc4ccc5[nH]c(-c6ccncc6)nc5c4)ccc3[nH]2)ccn1 | 2.04%
38 | COc1ccc2c(c1)C(=O)N(c1ccccc1)C(=O)/C2=C/Nc1ccccc1 | -2.63%
39 | CCCCn1c(CCCNC(=O)c2ccccc2)nc2ccccc21 | -11.5%
40 | CN1CCCN(c2ncc(-c3cccc(N4CCCCC4C(=O)NCC#N)c3)s2)CC1 (stereo not drawn) | 1.7%
41 | O=C(Cc1ccccc1F)Nc1cccnc1Cl | -4.49%
42 | Cc1c2cnn(CC(=O)NCCCSC3CCCCC3)c(=O)c2c(C)n1Cc1ccc(F)cc1 | -0.447%
43 | NC(=O)CSc1nc(-c2ccccc2)nc2c1Cc1cc(Cl)ccc1O2 | 0.44%
44 | Cc1nn2c(O)c3c(nc2c1-c1ccc(Cl)cc1)CCCC3 | 1.72%
45 | Cc1ccc(C(=O)N/C(=C/c2ccccc2F)C(=O)N(C)C)cc1 | 2.76%
46 | O=C(OCCN1CCCCC1)c1ccccc1Br | -3.63%
47 | CC(=O)c1ccc(NC(=O)CN2C(=O)C3C4CCC(C4)C3C2=O)cc1 (stereo not drawn) | 3.29%
48 | COc1cc(CN2CCN(Cc3cccc(C)c3)CC2)cc2c1OCO2 | -5.35%
49 | COCCNC(=O)C1CCCN(c2nn3cc(-c4ccc(OC)cc4)nc3s2)C1 (stereo not drawn) | 3.21%
50 | O=C1CSC(c2ccccc2)N1CC(O)c1ccc([N+](=O)[O-])cc1 (stereo not drawn) | 1.66%
51 | N#Cc1c(N)nc(SCC(N)=O)c(C#N)c1-c1cccs1 | 4.15%
52 | Cc1nc2c3ccccc3n3c(CCCC(=O)N4CCN(c5ccccn5)CC4)nnc3n2n1 | 2.04%

Row | Compound | % Inhibition @ 10 uM
53 | COc1ccc(OC)c(CN2CCN(Cc3ccc(Cl)cc3)CC2)c1 | -12.2%
54 | COc1ccc2c(Cl)c(C(=O)O)sc2c1Cl | 1.38%
55 | O=C(Nc1nccs1)C1=Cc2sc3c(c2CS1)CCCC3 | 0.442%
56 | COc1ccc(C2SCC(=O)N2Cc2ccccc2)cc1 (stereo not drawn) | -4.11%
57 | NC(=O)NC(CCc1ccccc1)c1ccccc1 (stereo not drawn) | -1.54%
58 | O=C(Nc1ccc(NC(=O)c2ccc3c(c2)OCO3)cc1)c1ccc2c(c1)OCO2 | 0.163%
59 | CCc1nnc(NC(=O)c2cc3ccc4cccnc4c3[nH]2)s1 | 0.711%
60 | O=C(O)CCCN1C(=O)C(O)=C(C(=O)c2ccc(Cl)cc2)C1c1ccc(F)cc1 (stereo not drawn) | 3.49%
61 | Cc1nn(C)cc1CNC(=O)c1cnn2c1NC(c1ccc(Br)cc1)CC2C(F)(F)F (stereo not drawn) | 3.89%
62 | CC1=C(c2ccc(C(C)C)cc2)S(=O)(=O)N=C1N1CCC(C(=O)NCc2ccc(F)cc2)CC1 | -1.56%
63 | CCOc1ccc(C(=O)C2=C(O)C(=O)N(CCN(C)C)C2c2ccc(C)o2)cc1Cl (stereo not drawn) | -5.93%
64 | CC(=O)Nc1cc(C(N)=O)c(Cl)cc1Cl | 1.08%
65 | COc1ccc(CN2CCc3ccccc3C2)cc1Br | 2.96%
66 | O=C(c1ccc(COc2cccc(Cl)c2)o1)N1CCCCC1 | -4.18%
67 | Cc1ccccc1C(=O)Nc1c(C(=O)N2CCOCC2)cnn1-c1ccccc1 | 4.83%
68 | CC(C)c1ccc(C(=O)Nc2ccc(S(=O)(=O)Nc3nccs3)cc2)cc1 | -1.42%
69 | CC(C)OC(=O)/C(=C/c1ccc2c(c1)OCO2)NC(=O)c1ccco1 | -1.81%
70 | C/C(Cl)=C/Cn1c(SCc2ccccc2Cl)nc2c1c(=O)[nH]c(=O)n2C | 2.36%
71 | CCOc1ccc(-c2nc3s/c(=C\c4cccnc4)c(=O)n3n2)cc1 | 0.222%
72 | N=c1scc(-c2ccc(Br)cc2)n1-c1ccccc1 | 11.5%
73 | Cc1c(CNC2CCCc3ccccc32)c(C(=O)O)c(C)n1Cc1ccc(F)cc1 (stereo not drawn) | -5.49%
74 | CN(C)CCN(C)CC1=CC[C@H]2C[C@@H]1C2(C)C | -2.21%
75 | O=[N+]([O-])c1cc(C(F)(F)F)ccc1-n1nnc2ccccc21 | 2.94%
76 | N#CC1=C(N)Oc2[nH]nc(-c3ccccc3)c2C1c1ccc(F)cc1F (stereo not drawn) | -6.36%
77 | O=C(CNS(=O)(=O)c1ccccc1)N1CCN(c2ccc(F)cc2)CC1 | -3.83%
78 | COc1cc(OC)cc(C(=O)Nc2nc(-c3nnn(-c4ccc(OC)c(OC)c4)c3C)ns2)c1 | -5.67%

Row | Compound | % Inhibition @ 10 uM
79 | Cc1ccc(-c2cc(C(=O)NCCN3CCOCC3)c3ccccc3n2)o1 | 2.32%
80 | Cc1nnc2c(O)nc3ccccc3n12 | 1.3%
81 | CCOc1ccc2c(c1)S/C(=C\c1ccccc1)C2=O | -0.366%
82 | Cc1cc(Cl)ccc1OCC(=O)N1CCc2ccccc21 | -7.58%
83 | c1ccc2c(c1)CSc1ccccc1C2 | -5.79%
84 | COc1ccc(C(=O)N2CCN(Cc3cccc(Cl)c3)CC2)cc1OC | -7.45%
85 | CCOc1ccc(CCNC(=O)CCc2nnc3ccc(N4CCC(C)CC4)nn23)cc1OCC | -0.544%
86 | CCN(Cc1ccccc1)C(=O)Cn1cc(C=O)c2ccccc21 | 0.718%
87 | CCC(C)NC(=O)C1CCN(c2ncnc3c2sc2cccc(F)c23)CC1 (stereo not drawn) | -2.37%
88 | COc1cc(C2C3=C(O)CCCC3=Nc3nc(SC)nc(O)c32)cc(OC)c1OC (stereo not drawn) | 3.61%
89 | Cc1ccc(NC(=O)NC(C)c2ccc(C)cc2C)cc1 (stereo not drawn) | -6.59%
90 | O=C(NC1CCCC1)c1nnc(-c2ccccc2)o1 | 3%
91 | C(=N\n1cnnc1)/c1cccs1 | 3.06%
92 | CCOC(=O)C1C(=O)C=C(Nc2ccc(OC)cc2)CC1c1ccccc1 (stereo not drawn) | -1.96%
93 | Cc1ccc(NC(=O)CC(C)(C)CC(=O)O)cc1Cl | -1.28%
94 | CCSc1nc(O)cc(=O)n1CC | 4.9%
95 | CC1CCN(C(=O)CCNS(=O)(=O)c2ccc3nc(O)ccc3c2)CC1 | 1.66%
96 | COc1ccc(Br)cc1CN1CCN(c2ccc([N+](=O)[O-])cc2)CC1 | -2.81%
97 | CCN(CC)c1ccc(NC(=O)c2ccc(C)o2)cc1 | 3.92%
98 | CSc1ncc(C(=O)NC(C)(C)C)c(-c2ccccc2)n1 | 2.9%
99 | N#CC(C(=O)Nc1ccccc1)=C1CCCC1 | -8.38%
100 | COc1cc(C=C2C(=O)N(C)C(=O)N(C)C2=O)ccc1OCc1ccc(Cl)cc1Cl | 1.43%
101 | Cc1nc(=O)c(-c2ccccc2)c(C)n1CCCCCC(=O)O | 1.02%
102 | CCc1ccc(C2CC(c3ccccc3C)n3ncnc3N2)cc1 (stereo not drawn) | -3.37%
